The record followed here is the RNAGym collection of RNA variant scans (doi:10.7554/elife.90254).

Read counts are not given, so values of variants with three or more changes are uncertain.

First the molecules themselves.
B1: LINE1-mini (parent)
chain: GGCAGAGCUCAACACAGCGUGGCAAAGUGGCUGUGGCUAGACUGCC

In this data set the parent is B1. The experiment in a line: self-cleavage, relative activity (ratio to wild type); higher = more cleavage; in vitro, sequencing; the parent is a self-cleaving ribozyme.
On to G19U A25C A41U, for which the self-cleavage was 0.15. As for G5A G7A C46A, the figure is 0.38; as for G2A C8A G30A G40A, 0.37. As for G2U C3A U9C C31A A39U, the figure is 0.01; as for G1A U9G U43C, 0.04. With U9G C18U G33U the figure was 0.08.

Take C8U U9A G44U: the self-cleavage was 0.46. With G5C G17U C18A G19A C31U G35U the figure was 0.02. With G2A C10A A16C G22A the figure was 0.01; with G2A A4C G17U G27C G33U, 0.14. Turning to G19C U20G C37U, the self-cleavage stood at 0.04. In the case of G35C C37A G40U, the self-cleavage worked out at 0.04. As for A6C C10U G21A A25G U38C, the figure is 0.36; as for U9A C18U A26C U32G, 0.03; as for C3G G19C A24C, 0.06. With G1A C31U U34A the figure was 0.02. With G22U G35U G44C the figure was 0.08; with G1C A4U C10G A14G, 0. G1C G21U G36C G40A: the self-cleavage came to 0.03. With U32G U34A A39G C46A the figure was 0; with C8G A16G U43C C45A, 0.05; with G7U C10G A14C, 0.02.

Take G5A G21U C37U G44U: the self-cleavage worked out at 0.04.

Turning to A4C C15U A16G A41C, the self-cleavage was 0.03.

For the variant C15A U20G G29U U38A G44C, the self-cleavage was 0.07. With U9A A16C C18A the figure was 0.02; with C8A A12U U20C, 0.1; with A14C G33C G35U C42A, 0.01. As for C8U G22A G35C G44A, the figure is 0.14; as for G7A U9C C13U A14G G27C, 0.02; as for G5A C18U G21C G36C, 0.12. As for G1U C23A G29C C42U, the figure is 0.05; as for C3U A4G C23A, 0.09. Turning to A4C C8G U43A, the self-cleavage was 0.03.

Regarding G2A G17C C23A C46G, the self-cleavage was 0.27.

On to C3G G33C C45U, for which the self-cleavage is 0.08.

For the variant A25C G29A G30U C31A U34A G40C, the self-cleavage was 0.05.

In the case of G21A G30A U32A G40A, the self-cleavage was determined as 0.05. With G5A G17A U28G the figure was 0.04; with U20G A26C G27U G40U, 0.01; with G1U A6C U28G, 0.48. In the case of A14G A24G G29U, the self-cleavage was 0.24.

In the case of C8A C10G A11U G30C, the self-cleavage was 0.02.

G19C G35U C45U: the self-cleavage came out at 0.04. With G7U A16G C23U the figure was 0.01; with G5U G19U A26U U43C, 0.02; with G27U G29U G36C, 0.05. As for C18G U20A C37U, the figure is 0.04; as for G5U A6G C10U C13G G30C G35U A39U, 0.02. As for A6C U9C A39U, the figure is 0.04. With U9A G29U C31A U34G, the self-cleavage turned out to be 0.04. With C8A C10G G17A U38C G40C the figure was 0.01; with A26U G27A A39G G44C, 0.1; with G21A A24C G36A, 0.13. With C13U A14G G30U the figure was 0.15. With G2A G7U C23U U28C the figure was 0.02; with G2A C15U U32G C42U, 0.19. G7C U9G G36C: the self-cleavage was 0.06. With C13G A16U G21C U32A C45U the figure was 0.03; with G1U C18G G30A G35A G44U C45A, 0.09.

On to G1A G22A C46G, for which the self-cleavage was determined as 1.36. On to C13A G19C G21C A25G C31G, for which the self-cleavage was 0.02. With A6U C18U G21C C45A the figure was 0.34; with A4U A11C C31A, 0; with C3A A14U C15U G17U C18G, 0.18. Take A4U A26C G30U: the self-cleavage came out at 0.13. With C3U C8A C10G the figure was 0.03; with A16G C18U G29U, 1.56; with A12C U20C G29A, 0.03. With A26C G27U U34C A39C the figure was 0.07.

With C13U C18A G22U A24C G33C A41G, the self-cleavage amounted to 0.03. As for C3A G7C G17C, the figure is 0.07; as for A6G G17U G27A U32C, 0.08. As for A14G U38G A39C, the figure is 0.07. With A16C A25U G27A U38A the figure was 0.1; with A11U C31G C37G, 0.01.

For G2C G7A G19U G22C A25U U32C C45A, the self-cleavage was 0.22. With G1C A16U G17A C31G the figure was 0.02; with A24G G30A U38G, 0.02. In the case of G2U G27A G33U C42A, the self-cleavage amounted to 0.

As for A25C C37A A41U G44U, the self-cleavage is 0.07. As for A4U U9G G29A, the figure is 0.05.

As to A4U C18G U28A, the self-cleavage is 0.07. With C10A U28G G40C the figure was 0.02; with G35C G36C U43A, 0.01. As for A6G G17U C37A, the figure is 0.01.

Turning to A4C A16G G30U C46A, the self-cleavage amounted to 0.04. Take C10A A26C C46U: the self-cleavage stood at 0.03. With G2C C3A A12C A14C G19C G27U G36A G40C C45G the figure was 0.01; with G22C G36C G40C, 0.12. With G1U G2A A4G the figure was 0.68. For C15A G19C U20A G22U, the self-cleavage worked out at 0.09. Consider A16U G19U G35C A41C, for which the self-cleavage was 0.02.

On to C8U U9G A14C A16U C37G, for which the self-cleavage worked out at 0.03. With G2U A12U C13A G40U A41U the figure was 0.03. With U9G C23U C42A the figure was 0.08.

Consider G7U C13G U32G, for which the self-cleavage came out at 0.02. With C10G A24U C45U the figure was 0.19. With A11U G19C C23U G36C C37G the figure was 0; with A25U U38A C42U C45U, 0.03.

Regarding C8G C13A C23G C46G, the self-cleavage worked out at 0.03.

As to U9A C15U A39U C46A, the self-cleavage is 0.28. As for U9A A11G U28A U43C C45G, the figure is 0; as for A12U G30U U43A, 0.02. With C10A A16G C23U A26U U28A A39G the figure was 0.01; with C15U G29A G33A, 1.47.

Take C3G C10A G30C G33U C37A: the self-cleavage came to 0.02. With C10A A14G G21U the figure was 0.04; with A4G C13U C37G, 0.04. Turning to A14C C15U C42G C46G, the self-cleavage was 0.

For A4U C8G U43C, the self-cleavage came out at 0.02. With G7A C8U U32C the figure was 0.45. With C15A G19A G29A the figure was 0.06. With C23G A26C G33U the figure was 0.12. Regarding C15U G29C U32C, the self-cleavage was 0.06. As for C10G A16C U20G G22A A24U U34C, the figure is 0; as for G1A G5A G17A, 0.06. As for G5U A12U G22A G27A U28C C42U, the figure is 0; as for G7C C10A A14C U20G U34C A39C A41C, 0. As for G19A U20C A24U U32A C46U, the figure is 0.73; as for G1C A16U G21A, 0.04; as for G1A G5U A6U A11U A24G U32C G33A, 0. On to C13G G19C A26U G30U A39G, for which the self-cleavage is 0.02. With G2U G7A A12C G22U G40A the figure was 0.01; with U9G A25G G40C, 0.04. As for G7C G33C C46G, the figure is 0; as for G27U G30U G35U U38G A41C, 0.02. As for G2C A6C G22U C46A, the figure is 0.16. Consider A4G G7U A14C G29U, for which the self-cleavage is 0.04. For C3A G5U C15U C31A, the self-cleavage is 0.03.

Regarding A12C U20C A26G G44A, the self-cleavage turned out to be 0.01.

With G1U C8U G21C, the self-cleavage came to 0.04. Regarding U20A G22C A39U, the self-cleavage worked out at 0.36. With G21A A39C C46A the figure was 0.3.

On to G5U C10U C37U, for which the self-cleavage was 0.02.

As to A11G G17U A26U C31A, the self-cleavage stood at 0.02.

On to A4G G17C A24U A41U, for which the self-cleavage was 0.04. With G17U A26U C45G the figure was 0.05; with C8U A12U U28C G29U, 0.06; with A4G A6G A25C G36C G40A, 0.01.

For the variant A16G G35A G36A G40A A41U, the self-cleavage turned out to be 0.22. With A11U G27A U28A C45U, the self-cleavage was determined as 0.08. In the case of G1U C23A U32G A41U, the self-cleavage amounted to 0.07. With A16G C31G G44U the figure was 0.03. On to C8U A24U G44A, for which the self-cleavage amounted to 0.12.

Consider A6G U9G C18G, for which the self-cleavage came out at 0.04. With U28C G29C U38C the figure was 0.1. As for C10A G17U G21C, the figure is 0.01. With A14C U20C U34A G35A the figure was 0.04; with A26U G40U C42A, 0.09; with A11U A24C G35C, 0.05. With C13U A25G G29U U38A, the self-cleavage turned out to be 0.06. With C3G C13A A25U C45G the figure was 0.08; with A4G G29U C42A G44U, 0.

In the case of C15G G22U G30A, the self-cleavage is 0.01.

Turning to G5A G19A G30U G33U U43C, the self-cleavage came out at 0.09.

Turning to U28C U34A G35C, the self-cleavage was 0.08. As for U9G C23U C37U, the figure is 0.04; as for G21U A25G A39G, 0.06. As for C15U G19U U20A C31G, the figure is 0.06; as for G1U G17U C37U A39U, 0.02. With C15U A25U C46G the figure was 0.19; with C3G A4U C15U A25U A26U G40C, 0.27; with A11C A24C G27U G30U C37U, 0.01.

Take U9C C10A G27A G29A G40A: the self-cleavage is 0.07. With A4G C23A A25C C37A G40U the figure was 0.2.

As to A4G G30U C31A G40U, the self-cleavage was found to be 0.51.
